This is one part of the list.
B1: ENSG00000198589:be:win_1501|CDS|ENSG00000198589|bound_else_gene|NA|bound_elsewhere_windowed (ssRNA)
RNA: GGGAGUUCUACAGUCCGACGAUCUUGCUGGCCUUUAUCAUGGAAUUGUUGAAGAACUCAAUUGCUAUGCAGGAACAGAUGCUUGCCUGUAAGGGCUUCUUGGUAAUAGGAUAUAGCCUUGAAAAGUCUUCCAAAUCUCAUGUUCAACAGAGGAUUGAGCAUCA
B2: chr1:32075697:32075801:+|CDS|ENSG00000121775|unk|FALSE|unique (ssRNA)
RNA: GGGAGUUCUACAGUCCGACGAUCCGAGCUGCCAGUCCAGGCCAGCAUUCUGUUUGAGUUGCAGCUCUUCUUCUGCCAGCUCAUAGCACUCUUCGUCCACUACAUCAACAUCUACAAGACAGUGUGGUGGUAUCCACCUUCCCACAACAGAGGAUUGAGCAUCA
B3: chr7:92618090:92618217:-|CDS|ENSG00000105810|unk|FALSE|bound_elsewhere (ssRNA)
RNA: GGGAGUUCUACAGUCCGACGAUCUAUGUCCAUGUGUGGUUCUUUUGUAGCGUGAUUGGACUCCCAGGAGAAGAAGACUGGCCUAGAGAUGUUGCCCUUCCCAGGCAGGCUUUUCAUUCAAAAUCUGCCCAACCAAUUGAGAAGCAACAGAGGAUUGAGCAUCA
B4: chr4:56461171:56461272:+|3pUTR|ENSG00000128050|msi1|total|mutant (ssRNA)
RNA: GGGAGUUCUACAGUCCGACGAUCCUUCUGUAACCACAGUGACUACAAGCCGUUCUUUCUCUAUUGAAUUAUCCGGUCCAGAACCGAAGAUGUCAUUGUACACUUUAUUUCCCUCACACUGUGUUAUGCUCUGAUGUGCUAUGCCAACAGAGGAUUGAGCAUCA
B5: ENSG00000122863:stop:overlap|stop_codon|ENSG00000122863|stop_codon|NA|stop_codon (ssRNA)
RNA: GGGAGUUCUACAGUCCGACGAUCCCGCCCUCACCAACCGCUCAGUCAGCCUGCUGGAGGAGAGGGGCACCUUCUGGGUCACGUAGGGGGGCCGGGGCCCCGUAUGCCCCUCCUCGUGAAAGGCCUGCCCCGUCUUUCUGCCGCCAACAGAGGAUUGAGCAUCA
B6: chr3:125012942:125013043:-|CDS|ENSG00000173706|msi1|total|mutant (ssRNA)
RNA: GGGAGUUCUACAGUCCGACGAUCGCCUCUUAUGACCACUCCUGGCACCCUGUCAAGCACAGCAUCUCUGGUCACUGGCCCUACCGCCGUACAGACUACAGCUGGAAAACAGCUCUCGCUGACCCAUCCUGAAAUACCCGUUCCCAACAGAGGAUUGAGCAUCA
B7: chrX:24560996:24561098:-|3pUTR|ENSG00000102230|unk|FALSE|unique (ssRNA)
RNA: GGGAGUUCUACAGUCCGACGAUCACUCAAGACUUUUUACAGAGAACUGUGGGCUCAGUUAUGAUCUCAGCAUCUGAAUGGUCUAGGUAGUAUCACCAUUAUCUCUGGCCCUAGGUUUGCCAAGUAGGAUGAAGACUCUAAGUGCAACAGAGGAUUGAGCAUCA
B8: chr10:29523788:29523889:-|CDS|ENSG00000197321|unk|total|mutant (ssRNA)
RNA: GGGAGUUCUACAGUCCGACGAUCAAUGCAAGUGCCACUGACUAUAAGUUUUCUUCUUCAACCGAAAAUUCGGACUCUCCAGUCCGAAGCAUUCUGAAAUCGCAAGCUUGGCAGCCUUUGGCCGAGGGCCGCGAGAACAAGGGACAACAGAGGAUUGAGCAUCA
B9: chr15:43232589:43233190:-|three_prime_utr|ENSG00000104055|control|control|control (ssRNA)
RNA: GGGAGUUCUACAGUCCGACGAUCGCUCCAGCAAGAGCCACAGAGGGGAUGACGUGUUCAUUUUCUGUCUCUCCUGACUCCACUAGAAAUUUAAGCUCCAUGAGGGCAAAGACUUUGCUUUGUUUACUACCCCUAUACUCAGAACAACAGAGGAUUGAGCAUCA
B10: chr1:214663888:214664008:+|3pUTR|ENSG00000117724|msi1|FALSE|bound_elsewhere (ssRNA)
RNA: GGGAGUUCUACAGUCCGACGAUCAGGAGAAAACAAUUCCUUAGAAGUCUUAAAUAUAUUGUACUCUUUAGAUCUCCCAUGUGUAGGUAUUGAAAAAGUUUGGAAGCACUGAUCACCUGUUAGCAUUGCCAUUCCUCUACUGCACAACAGAGGAUUGAGCAUCA
B11: ENSG00000198589:be:win_1151|CDS|ENSG00000198589|bound_else_gene|NA|bound_elsewhere_windowed (ssRNA)
RNA: GGGAGUUCUACAGUCCGACGAUCUGGGAUACAAGGGUACAUUUAAAUUCAAAGCAGAAAGCGACCUUUUCCUUGCUGAGCAUCACAAACUUUUAUUGUACGAUGGGAAACUCUCUAGUGCCAUUGCAUUCACGUACAAUCCACCAACAGAGGAUUGAGCAUCA
B12: chr14:22589090:22589186:-|5pUTR_CDS|ENSG00000129562|msi1_unk|total|mutant (ssRNA)
RNA: GGGAGUUCUACAGUCCGACGAUCUCCUCCAAGAGUUUGGGGCGCGGACCGGAGUACCUUGCGUGCAGUUAUGUCGGCGUCGGCCGUGUCUGUCAUUUCGCGGUUCUCCGAAGAGUACUUGAGCUCCACUCCGCAGCGUCUGAACAACAGAGGAUUGAGCAUCA
B13: chr9:91409354:91409467:-|CDS|ENSG00000165030|unk|total|mutant (ssRNA)
RNA: GGGAGUUCUACAGUCCGACGAUCAAUGAAAGACAGUGGCUACAAAGUUUCUGACCCAGAGAACUUGUAUUUGAAGCAGGGGACCGCAAACUUAUCUGCAGAGGUUGUCUCACUCAAGAGACUUACCGCCACACAACCAAUCUCCAACAGAGGAUUGAGCAUCA
B14: chr2:1633339:1633490:-|3pUTR|ENSG00000130508|msi1|FALSE|unique (ssRNA)
RNA: GGGAGUUCUACAGUCCGACGAUCUUCAUAAGCCACAUUUAGAAACAGGUUUGCUUUCAGCUGUCACUUGCACACAUACUGCCUAGUUGUGAACCAAAUGUGAAAAAACCUCCUUCAUCCCAUUGUGUAUCUGAUACCUGCCGACAACAGAGGAUUGAGCAUCA
B15: chr10:103999120:103999255:+|CDS|ENSG00000065613|unk|total|mutant (ssRNA)
RNA: GGGAGUUCUACAGUCCGACGAUCAUCUAAGGACAGACCCUAUGACUACAAAGCUGAUGUUUGGUCCCUGGGUAUCACUUUAACCGAAAUGGCUGAGACCGAACCACCUCAUCAUGAAUUAAAUCCAAUGCGAGUGCUGCUAAACAACAGAGGAUUGAGCAUCA
B16: chr7:115017934:115018035:+|3pUTR|ENSG00000135272|unk|total|mutant (ssRNA)
RNA: GGGAGUUCUACAGUCCGACGAUCUGAGAUGAAACGCCGUUUCCCGUUAUAUCAUUACUUAAAGGGCUUAAAAAGAAAAAACUCCGCAAACUUUUGAAUCUUUCUUUUAUUGCUAUUUACACAUACAUACACACAUACAAAACCCAACAGAGGAUUGAGCAUCA
B17: chr1:90030187:90030288:+|3pUTR|ENSG00000162664|unk|FALSE|unique (ssRNA)
RNA: GGGAGUUCUACAGUCCGACGAUCACCCAGUUCAAGUCAUGAUAAUUUCUUGUUAACUAAUCUUGAUUCCACCCUUACCAUGAUAGAUUCAGUUUUCUACACAAGUAUAAGCUUUUAAAAAUGUAAUUCAGAUGAUGUUAAUCUCAACAGAGGAUUGAGCAUCA
B18: chr2:200815332:200815484:+|CDS|ENSG00000082153|unk|FALSE|bound_elsewhere (ssRNA)
RNA: GGGAGUUCUACAGUCCGACGAUCUCAGUUUCAAGACUGUAUUAUUCAAGGCUUAACUGAAACCGGUACUGAUUUGGAAGCAGUAGCUAAGUUUCUUGAUGCUUCUGGAGCAAAACUUGAUUACCGUCGAUAUGCAGAAACACUCAACAGAGGAUUGAGCAUCA
B19: chr22:36488912:36489013:-|3pUTR|ENSG00000100350|msi1|total|mutant (ssRNA)
RNA: GGGAGUUCUACAGUCCGACGAUCCCCGUCUCUUCUUCAUUGCCCUUCCUCACCAGCAAUCUGCACUUUCCCAUCAGGCGUCUCCGUCUCAUUUGUAAGUGCAUAAGAUAAUCACAGUGAUUUUUCAAAGCCCAGGAUCAUAAGCAACAGAGGAUUGAGCAUCA
B20: chr10:62807900:62808002:+|3pUTR|ENSG00000181915|unk|FALSE|unique (ssRNA)
RNA: GGGAGUUCUACAGUCCGACGAUCCAAAAAGUUGAUUAGCUUACCAAGAUUAUUAAUAGCAAUGUAUGUGUUAUAAUACAACUUAGUACAUUAAAGCUACGAAAACUCAUCCUGGCUGUAGGAUAGUAAUAAAGGAAGAAUUAUCAACAGAGGAUUGAGCAUCA
B21: chr20:2117184:2117286:+|CDS|ENSG00000125834|unk|total|mutant (ssRNA)
RNA: GGGAGUUCUACAGUCCGACGAUCGCUCCUGGGGACCUACAUUAAACAGGGGACUGAGAUCGUCCCUGUUGGUGAGGCGCUGCCCGAAAACCCAAAGAUGGAGUUGCACAUCCCCCAAAAACGCAGGACUUCCAUGUCUGAGGGCAACAGAGGAUUGAGCAUCA
B22: chr14:31448131:31448454:-|CDS|ENSG00000129480|control|control|control (ssRNA)
RNA: GGGAGUUCUACAGUCCGACGAUCUGUGACUCUAUGUGAAAAAGAAGUAGCUGCUAAUAGCAAGUGUGCUGAAGCUAGGGUUGUAGUGGAACAUGGCACUUAUGGGAACAGGCAGGUGUUAAAGCUGGACACCAACGGACCAUUCAACAGAGGAUUGAGCAUCA

These binders were tested against MSI1 full-length (mouse, UniProt Q61474 1-362) (assay: nsRBNS (natural sequence RNA bind-n-seq); RBNS binding buffer (assumed for nsRBNS): 25 mM Tris pH 7.5, 150 mM KCl, 3 mM MgCl2, 0.01% Triton X-100, 500 ug/ml BSA, 20 U/ml SUPERase-In, 4 C; UNK is unkempt and MSI1 is Musashi-1; names of the RNAs are library labels; protein concentration not given here; high values mean tight binding).
Chain of UniProt Q61474 (Q61474 whole entry): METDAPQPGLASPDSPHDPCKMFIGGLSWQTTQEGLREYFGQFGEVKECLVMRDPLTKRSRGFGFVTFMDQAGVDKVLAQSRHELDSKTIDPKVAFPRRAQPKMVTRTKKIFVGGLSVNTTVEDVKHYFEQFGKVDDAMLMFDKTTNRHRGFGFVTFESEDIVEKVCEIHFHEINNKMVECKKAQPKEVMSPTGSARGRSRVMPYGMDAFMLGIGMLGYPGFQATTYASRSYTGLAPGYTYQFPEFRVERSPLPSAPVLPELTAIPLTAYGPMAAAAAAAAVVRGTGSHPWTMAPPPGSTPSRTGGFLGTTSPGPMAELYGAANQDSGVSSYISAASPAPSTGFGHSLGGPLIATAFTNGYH

Binder | binding signal [enrichment R]
B1 | 0.344
B2 | 0.42
B3 | 0.383
B4 | 0.292
B5 | 0.62
B6 | 0.515
B7 | 1.2
B8 | 0.214
B9 | 1.39
B10 | 16.4
B11 | 0.307
B12 | 0.324
B13 | 0.409
B14 | 0.34
B15 | 0.32
B16 | 11.7
B17 | 2.46
B18 | 0.196
B19 | 0.467
B20 | 2.03
B21 | 0.615
B22 | 0.747

Reference: PMC12136788
